Reference: publication PMC4336329 (PLoS ONE, 2015)
Out of some 310,000 compounds screened, about 2,200 (0.71%) showed an effect of 50% or more. Effects have a minus sign here. Some of the results follow.

The molecules below were run against human ether-à-go-go-related gene (hERG) potassium channel (human, UniProt Q12809) (assay: primary screen, population patch clamp on CHO cells stably expressing hERG).
human ether-à-go-go-related gene (hERG) potassium channel, sequence (Q12809 whole entry, looked up): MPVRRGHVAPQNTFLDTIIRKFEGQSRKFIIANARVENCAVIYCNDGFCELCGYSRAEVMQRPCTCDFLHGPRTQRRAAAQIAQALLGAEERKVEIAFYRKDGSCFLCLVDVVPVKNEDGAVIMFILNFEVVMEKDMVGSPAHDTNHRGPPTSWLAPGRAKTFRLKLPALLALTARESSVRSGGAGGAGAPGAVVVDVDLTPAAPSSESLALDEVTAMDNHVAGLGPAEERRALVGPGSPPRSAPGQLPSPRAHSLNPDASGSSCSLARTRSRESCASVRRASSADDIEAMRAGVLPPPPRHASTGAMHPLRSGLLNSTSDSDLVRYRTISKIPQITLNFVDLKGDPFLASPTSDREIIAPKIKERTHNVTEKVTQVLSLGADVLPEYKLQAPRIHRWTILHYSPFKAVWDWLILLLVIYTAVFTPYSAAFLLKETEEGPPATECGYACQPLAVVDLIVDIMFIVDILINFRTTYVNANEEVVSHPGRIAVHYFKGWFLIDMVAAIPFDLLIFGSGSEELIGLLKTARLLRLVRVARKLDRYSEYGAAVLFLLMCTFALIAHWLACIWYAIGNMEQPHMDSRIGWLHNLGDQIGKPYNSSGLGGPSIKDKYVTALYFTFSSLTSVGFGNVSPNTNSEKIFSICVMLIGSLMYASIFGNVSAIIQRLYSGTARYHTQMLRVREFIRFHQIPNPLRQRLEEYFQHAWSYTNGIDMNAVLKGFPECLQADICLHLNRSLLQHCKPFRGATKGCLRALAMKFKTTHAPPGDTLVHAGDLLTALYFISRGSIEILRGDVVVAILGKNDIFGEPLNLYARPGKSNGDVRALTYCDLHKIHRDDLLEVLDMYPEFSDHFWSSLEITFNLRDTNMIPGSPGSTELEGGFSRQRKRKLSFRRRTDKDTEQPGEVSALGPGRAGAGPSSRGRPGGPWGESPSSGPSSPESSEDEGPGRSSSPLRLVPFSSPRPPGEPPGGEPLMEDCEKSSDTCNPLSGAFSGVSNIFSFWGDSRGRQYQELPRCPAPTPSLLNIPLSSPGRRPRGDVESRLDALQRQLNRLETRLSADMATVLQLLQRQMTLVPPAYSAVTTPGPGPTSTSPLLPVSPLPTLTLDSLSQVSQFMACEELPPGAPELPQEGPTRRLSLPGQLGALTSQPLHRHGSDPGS

In order of rising “hERG current change (%, negative = inhibition) at 1uM” value:
1. COc1cccc(C(=O)NCCCN2CCN(CCCNC(=O)c3cccc(OC)c3)CC2)c1  -65.2%
2. c1cc2c3c(cccc3c1)C(N1CCCCC1)=N2  -44.8%
3. COc1cc(OC)c(OC)cc1CCC(C)NCCC(c1ccccc1)c1ccccc1.Cl (centres unmarked)  -32.4%
4. CCN(CC)CCNC(=O)c1ccc(NC(=O)COc2ccccc2F)cc1.Cl  -9.43%
5. CCCCc1ccc(NC(=S)N2CCN(C(=O)c3ccco3)CC2)cc1  -6.86%
6. COc1ccc(OC(=O)CCN2C(=O)C3C4C=CC(C4)C3C2=O)cc1 (centres unmarked)  -3.36%
7. O=C(Nc1ccc(Br)cc1)/C(=C/c1cccc([N+](=O)[O-])c1)NC(=O)C1CCCCC1  -3.32%
8. CC(=NCCN1CCCCC1)c1c(O)[nH]c(=O)[nH]c1=O  -1.43%
9. O=C(CC1(O)C(=O)N(Cc2cccc3ccccc23)c2ccccc21)c1cccnc1 (centres unmarked)  -1.34%
10. CCN(C(=O)COC(=O)c1ccc(O)cc1O)c1c(N)n(Cc2ccccc2)c(=O)[nH]c1=O  0.207%
11. Cc1ccc(Cl)cc1-n1c(=O)cc(N2CC(C)OC(C)C2)[nH]c1=O (centres unmarked)  0.208%
12. CCCCC(=O)NC(=S)Nc1cc([N+](=O)[O-])ccc1OC  0.285%
13. CSC(=NC1CCCCC1)NS(=O)(=O)c1ccccc1  0.58%
14. CCS(CC)=NS(=O)(=O)c1ccc(NC(C)=O)cc1  0.751%
15. COc1ccc(CN=C2NC(=O)CC(C(=O)Nc3ccc(Cl)cc3)S2)cc1 (centres unmarked)  0.837%
16. CC(C)(CSc1ccccn1)NS(=O)(=O)c1ccccc1  1.44%
17. CC(C(=O)NCCc1ccccc1)N1c2cccc3cccc(c23)S1(=O)=O (centres unmarked)  4.02%
18. COc1ccc(NS(=O)(=O)c2cccc(C(=O)NNC(=O)c3ccccc3OC)c2)cc1  4.27%
19. O=C(CSc1ccc2nnc(-c3cccnc3)n2n1)NCc1ccc2c(c1)OCO2  4.47%
20. Cc1cc(-c2c(C(=O)N3CCOCC3)c(C)nn2-c2ccccc2)no1  4.93%
21. O=C(COc1ccccc1Cl)Nc1ccc(CN2CCOCC2)cc1  5.4%
22. O=C(CSc1nnc(-c2ccc([N+](=O)[O-])cc2)o1)Nc1ccccn1  5.7%
23. O=C(O)c1ccc(NS(=O)(=O)c2ccc(Cl)cc2)cc1  5.71%
24. COc1ccc(-n2c(SCC(=O)Nc3ccc4c(c3)OCO4)nc3c(c2=O)SCC3)cc1  6.2%
25. Cc1ccc(Nc2nc(C)c3c(n2)CC(C)CC3=O)c(C)c1 (centres unmarked)  6.41%
26. Cc1cc(C)c2c(n1)nn1c(C)c(CCC(=O)NCc3ccco3)c(C)nc21  6.52%
27. CCN(CC)CC(=O)Nc1ccc(Cl)cc1C(=O)c1ccccc1  6.87%
28. CC(C)(C)c1ccccc1NC(=O)c1ccc(-n2cncn2)c([N+](=O)[O-])c1  7.04%
29. Cc1cc2ccccc2n2c(SCC(=O)N3CCc4ccccc4C3)nnc12  7.81%
30. N#Cc1ccccc1OCC(=O)Nc1ccccc1C(=O)NC1CC1  7.89%
31. Cc1ccc(N(CCCCN2C(=O)c3ccccc3C2=O)C(=O)c2ccc(Cl)s2)cc1  8.06%
32. Nc1nc(Nc2cccc(F)c2)nc(N2CCOCC2)c1[N+](=O)[O-]  8.12%
33. CC(C)Cc1cc(C(=O)Nc2ccc(F)cc2F)no1  8.18%
34. C(=C\c1ccccc1)/C=N/N1CCN(c2ccccn2)CC1  8.59%
35. COc1cc(OC)nc(NC(=O)CSc2nnc(-c3ccccc3)n2C2CCCCC2)n1  8.74%
36. CCC(C)n1cnc2c(=O)oc3ccccc3c21 (centres unmarked)  8.83%
37. CCOC(=O)C1(Cc2ccccc2C(F)(F)F)CCN(CC(O)CO)CC1 (centres unmarked)  10%
38. O=C1CC(N2CCN(Cc3ccc4c(c3)OCO4)CC2)C(=O)N1Cc1ccc(N2CCCC2=O)cc1 (centres unmarked)  10.5%
39. CCc1nn2c(=O)cc(COc3ccc(/C=C4\C(=N)N5N=C(C)SC5=NC4=O)cc3)nc2s1  10.6%
40. CCOc1ccc(C(C)=O)cc1COC(=O)CN1C(=O)NC2(CCCC2)C1=O  10.7%
41. CC(=O)Nc1ccc(NC(=O)CC(C)n2ccnc2)cc1 (centres unmarked)  10.8%
42. CC(=O)Nc1cccc(NC(=O)CSc2ccc(-c3ccco3)nn2)c1  11%
43. COC(=O)c1cc2sccc2n1CC(=O)N(C)c1ccccc1  11.5%
44. Cc1onc(-c2c(F)cccc2Cl)c1C(=O)OCC(=O)NCc1ccco1  11.6%
45. CCSC1=C(C#N)C(c2ccccc2Cl)CC(=O)N1 (centres unmarked)  11.9%
46. CCOC(=O)N/N=C/c1c(F)cccc1F  12.2%
47. CC(=O)OCCNC(=O)c1cc2ccccc2oc1=O  12.2%
48. O=C(O)C1CCCN1c1nc(C(F)(F)F)nc2ccccc12 (centres unmarked)  13.2%
49. O=c1[nH]c(C2CCCN(S(=O)(=O)c3ccccc3Cl)C2)nc2c1nnn2Cc1ccc2c(c1)OCCO2 (centres unmarked)  13.5%
50. Cc1ccc(S(=O)(=O)N(C)c2ccccc2C(=O)N2CCCC2)cc1  13.6%
51. Cn1cc(C(=O)C(=O)N2CCCC2)c2ccccc21  14.3%
52. CCOC(=O)c1cn(-c2nc(-c3ccc(Cl)c(Cl)c3)cs2)c2c(F)c(N3CCOCC3)c(F)cc2c1=O  17.1%
53. COc1cccc(-c2nn(-c3ccccc3)cc2/C=C\C(=O)c2cccs2)c1  17.4%
54. CN(Cc1nccn1C)C(=O)CC1C(=O)NCCN1Cc1ccccc1C(F)(F)F (centres unmarked)  17.7%
55. Cc1cc(C(=O)NC(Cc2c[nH]c3ccccc23)C(=O)O)c(C)o1 (centres unmarked)  18.1%
56. CC(=O)Oc1ccc(Oc2ccc(-c3noc(C)n3)cc2)cc1  22.5%
